Measured values published in the supplement of paper PMC4604168 (melanoma cell lines).
Some of the results follow. Most values come without repeats; read them as rough.

Key:
Experiment in all cases: cell count relative to DMSO control; melanoma cells; higher = more viable cells
Details in all cases: library dose: standard library concentration; 72 h
SkMel28 = system: SkMel28
SkMel2 = system: SkMel2
SkMel30 = system: SkMel30
SkMel5 = system: SkMel5
UACC257 = system: UACC257
UACC62 = system: UACC62
WM115 = system: WM115
WM1716 = system: WM1716
WM1745 = system: WM1745
WM3526 = system: WM3526
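Note: cells treated in 1,536-well plates, then fixed and DAPI-stained, with nuclei counted from automated high-throughput microscope images.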

| Compound | cell count (SkMel28) | cell count (SkMel2) | cell count (SkMel30) | cell count (SkMel5) | cell count (UACC257) | cell count (UACC62) | cell count (WM115) | cell count (WM1716) | cell count (WM1745) | cell count (WM3526) |
| --- | --- | --- | --- | --- | --- | --- | --- | --- | --- | --- |
| Cn1nnc2c(C(N)=O)ncn2c1=O [temozolomide] + O=C(CCCCCCC(=O)Nc1ccccc1)NO [vorinostat] (first compound 10 µM, partner dose 0.4 µM) | 48.8% | 81.3% | 65.1% | 90.9% | 58% | 57.3% | 74.2% | 55.9% | 90% | 77.3% |
| O=C(O)[C@@H]1[O][Sb](=[O])([O][Sb]2(=[O])[O][C@H]([C@H](O)CO)[C@H](O)[C@H](C(=O)O)[O]2)[O][C@H]([C@H](O)CO)[C@@H]1O (stereo not given in full) [stibogluconate] + CS(=O)(=O)CCNCc1ccc(-c2ccc3ncnc(Nc4ccc(OCc5cccc(F)c5)c(Cl)c4)c3c2)o1 [lapatinib] (first compound 10 µM, partner dose 4 µM) | 83.9% | 96.1% | 75.3% | 58.2% | 85.9% | 49% | 77% | 74.1% | 83.9% | 71.1% |
| Cc1cc(N2CCOCC2)cc2[nH]c(-c3c(NC[C@@H](O)c4cccc(Cl)c4)cc[nH]c3=O)nc12 + Oc1cc(-c2nc(-c3ccccc3)[nH]c2-c2ccncc2)ccc1Cl [L779450] (first compound 1 µM, partner dose 1 µM) | 33.9% | 4.43% | 80.5% | 68.4% | 91.3% | 65.6% | 46.7% | 73.5% | 31.9% | 36% |
| O=C(O)[C@@H]1[O][Sb](=[O])([O][Sb]2(=[O])[O][C@H]([C@H](O)CO)[C@H](O)[C@H](C(=O)O)[O]2)[O][C@H]([C@H](O)CO)[C@@H]1O (stereo not given in full) [stibogluconate] + C=CCNC1=C2C[C@@H](C)C[C@H](OC)[C@H](O)[C@@H](C)/C=C(\C)[C@H](OC(N)=O)[C@@H](OC)/C=C\C=C(/C)C(=O)NC(=CC1=O)C2=O [Tanespimycin] (first compound 10 µM, partner dose 0.01 µM) | 121% | 103% | 151% | 60.9% | 115% | 53.8% | 26.4% | 88% | 55.7% | 73.6% |
| O=C(Nc1ccccc1)c1cc([N+](=O)[O-])ccc1Cl + c1cc(-c2cnn3cc(-c4ccc(OCCN5CCCCC5)cc4)cnc23)ccn1 [Dorsomorphin] (first compound 10 µM, partner dose 2 µM) | 32.8% | 81.4% | 86.6% | 50.6% | 43.2% | 35.5% | 61.3% | 61.5% | 45% | 73.1% |
| Cc1cc(N2CCOCC2)cc2[nH]c(-c3c(NC[C@@H](O)c4cccc(Cl)c4)cc[nH]c3=O)nc12 + C[C@@H]1CCN(C(=O)CC#N)C[C@@H]1N(C)c1ncnc2[nH]ccc12 [CP690550] (first compound 1 µM, partner dose 5 µM) | 99.1% | 75.6% | 84.5% | 73.3% | 99.1% | 101% | 67.2% | 102% | 60.1% | 79.3% |
| O=C(Nc1cc(C(F)(F)F)cc(C(F)(F)F)c1)c1cc(Cl)ccc1O + Cc1cc(N2CCOCC2)cc2[nH]c(-c3c(NC[C@@H](O)c4cccc(Cl)c4)cc[nH]c3=O)nc12 [BMS536924] (first compound 0.08 µM, partner dose 1 µM) | 49.8% | 87.6% | 88.1% | 56.5% | 84.2% | 79.5% | 79.1% | 98.1% | 51.5% | 71.5% |
| O=C(O)c1ccc2c(c1)nc(Nc1cccc(Cl)c1)c1ccncc12 + O=C(O)c1ccc(-c2c[nH]c3ncc(-c4ccccc4)cc23)cc1C1CCCC1 [GSK650394] (first compound 2 µM, partner dose 0.8 µM) | 67.1% | 69.6% | 91.1% | 72.5% | 83.9% | 105% | 98.3% | 96.1% | 55.6% | 65.8% |
| O=C(O)[C@@H]1[O][Sb](=[O])([O][Sb]2(=[O])[O][C@H]([C@H](O)CO)[C@H](O)[C@H](C(=O)O)[O]2)[O][C@H]([C@H](O)CO)[C@@H]1O (stereo not given in full) [stibogluconate] + COc1cc2c(Oc3ccc4[nH]c(C)cc4c3F)ncnc2cc1OCCCN1CCCC1 [cediranib] (first compound 10 µM, partner dose 2 µM) | 93.4% | 81.2% | 91.5% | 62.5% | 94.4% | 81.7% | 70.4% | 85.2% | 59.3% | 71.2% |
| O=C(Nc1cc(C(F)(F)F)cc(C(F)(F)F)c1)c1cc(Cl)ccc1O + NC(=O)Nc1cc(-c2cccc(F)c2)sc1C(=O)N[C@H]1CCCNC1 [AZD7762] (first compound 0.08 µM, partner dose 0.1 µM) | 43.7% | 83.2% | 66.3% | 60.9% | 91.7% | 64% | 83.3% | 84% | 59.8% | 66% |
| O=C(O)c1ccc2c(c1)nc(Nc1cccc(Cl)c1)c1ccncc12 + C#Cc1cccc(Nc2ncnc3cc(OCCOC)c(OCCOC)cc23)c1 [erlotinib] (first compound 2 µM, partner dose 4 µM) | 41.6% | 61.5% | 56.3% | 45.2% | 80.2% | 32.1% | 64.3% | 81% | 37.1% | 43.1% |
| Cn1nnc2c(C(N)=O)ncn2c1=O [temozolomide] + Cc1cc([N+](=O)[O-])ccc1NS(=O)(=O)c1cc(Cl)ccc1Cl [FH535] (first compound 10 µM, partner dose 5 µM) | 32.3% | 92.3% | 76.2% | 89.5% | 67% | 78.9% | 78% | 59.4% | 66.3% | 78.5% |
| Cc1cc(N2CCOCC2)cc2[nH]c(-c3c(NC[C@@H](O)c4cccc(Cl)c4)cc[nH]c3=O)nc12 + COc1cc2ncnc(Nc3ccc(Oc4ccccc4)cc3)c2cc1OC [SrcI1] (first compound 1 µM, partner dose 10 µM) | 59.9% | 76.1% | 81.2% | 63.5% | 86.4% | 66.9% | 80.9% | 79.8% | 37.6% | 41.4% |
| O=C(O)c1ccc2c(c1)nc(Nc1cccc(Cl)c1)c1ccncc12 + O=C(Nc1cccc(Cl)c1)Nc1ncc(CCNc2ncnc3ccsc23)s1 [SNS314] (first compound 2 µM, partner dose 0.004 µM) | 56.1% | 69.7% | 79.5% | 63.3% | 67% | 83.2% | 46.6% | 43.8% | 52.9% | 50.5% |
| O=C(Nc1cc(C(F)(F)F)cc(C(F)(F)F)c1)c1cc(Cl)ccc1O + CC1(C)CCC(c2ccc(Cl)cc2)=C(CN2CCN(c3ccc(C(=O)NS(=O)(=O)c4ccc(N[C@H](CCN5CCOCC5)CSc5ccccc5)c(S(=O)(=O)C(F)(F)F)c4)cc3)CC2)C1 [ABT263] (first compound 0.08 µM, partner dose 2 µM) | 65.5% | 83.3% | 68.2% | 98.8% | 37.3% | 75.1% | 98.3% | 63.7% | 3.53% | 78% |
| O=C(O)[C@@H]1[O][Sb](=[O])([O][Sb]2(=[O])[O][C@H]([C@H](O)CO)[C@H](O)[C@H](C(=O)O)[O]2)[O][C@H]([C@H](O)CO)[C@@H]1O (stereo not given in full) [stibogluconate] + Nc1ccn([C@@H]2O[C@H](CO)[C@@H](O)C2(F)F)c(=O)n1 [gemcitabine] (first compound 10 µM, partner dose 0.002 µM) | 96.2% | 88.3% | 109% | 82.8% | 115% | 72.2% | 51.2% | 42.3% | 39.8% | 88.2% |
| O=C(O)[C@@H]1[O][Sb](=[O])([O][Sb]2(=[O])[O][C@H]([C@H](O)CO)[C@H](O)[C@H](C(=O)O)[O]2)[O][C@H]([C@H](O)CO)[C@@H]1O (stereo not given in full) [stibogluconate] + C[C@]1(c2nc3c(C(N)=O)cccc3[nH]2)CCCN1 [Veliparib] (first compound 10 µM, partner dose 7 µM) | 92.5% | 112% | 112% | 70.4% | 88.5% | 69% | 91.3% | 82.2% | 87.3% | 104% |
| O=C(Nc1cc(C(F)(F)F)cc(C(F)(F)F)c1)c1cc(Cl)ccc1O + COc1cc(Nc2ncc(F)c(Nc3ccc4c(n3)NC(=O)C(C)(C)O4)n2)cc(OC)c1OC [Tamatinib] (first compound 0.08 µM, partner dose 2 µM) | 81.2% | 56.3% | 78% | 37.4% | 78.1% | 66.6% | 79.5% | 78.2% | 29.3% | 60.4% |
| O=C(Nc1cc(C(F)(F)F)cc(C(F)(F)F)c1)c1cc(Cl)ccc1O + CCCCCCCCCCCCCCCCCCOP(=O)([O-])OC1CC[N+](C)(C)CC1 [Perifosine] (first compound 0.08 µM, partner dose 2 µM) | 66.4% | 97.6% | 67.5% | 91% | 108% | 109% | 67.1% | 84.6% | 95.5% | 83.7% |
| O=C(O)c1ccc2c(c1)nc(Nc1cccc(Cl)c1)c1ccncc12 + Nc1ccn([C@@H]2O[C@H](CO)[C@@H](O)C2(F)F)c(=O)n1 [gemcitabine] (first compound 2 µM, partner dose 0.002 µM) | 64.9% | 75.8% | 77.5% | 56% | 103% | 72.5% | 64.7% | 52.8% | 41% | 58.5% |
| O=C(Nc1cc(C(F)(F)F)cc(C(F)(F)F)c1)c1cc(Cl)ccc1O + Cc1ccc(NC(=O)c2cccc(N(C)C)c2)cc1NC(=O)c1ccc(O)cc1 [ZM336372] (first compound 0.08 µM, partner dose 10 µM) | 105% | 92% | 84.5% | 80.7% | 73.4% | 94.7% | 82% | 104% | 81.3% | 101% |
| Cc1cc(N2CCOCC2)cc2[nH]c(-c3c(NC[C@@H](O)c4cccc(Cl)c4)cc[nH]c3=O)nc12 + Oc1nc(-c2ccc(C(F)(F)F)cc2)nc2c1CSCC2 [XAV939] (first compound 1 µM, partner dose 10 µM) | 63.6% | 77.5% | 83.6% | 81% | 72.1% | 103% | 85.4% | 78.3% | 44.5% | 80.7% |
